In all, about 310,000 compounds went through this assay and about 2,200 (0.71%) showed an effect of 50% or more. Effects have a minus sign here. The list shows a part of the results.
Target: human ether-à-go-go-related gene (hERG) potassium channel (human, UniProt Q12809)
Test: primary screen, population patch clamp on CHO cells stably expressing hERG

Sequence of human ether-à-go-go-related gene (hERG) potassium channel (Q12809 whole entry, looked up): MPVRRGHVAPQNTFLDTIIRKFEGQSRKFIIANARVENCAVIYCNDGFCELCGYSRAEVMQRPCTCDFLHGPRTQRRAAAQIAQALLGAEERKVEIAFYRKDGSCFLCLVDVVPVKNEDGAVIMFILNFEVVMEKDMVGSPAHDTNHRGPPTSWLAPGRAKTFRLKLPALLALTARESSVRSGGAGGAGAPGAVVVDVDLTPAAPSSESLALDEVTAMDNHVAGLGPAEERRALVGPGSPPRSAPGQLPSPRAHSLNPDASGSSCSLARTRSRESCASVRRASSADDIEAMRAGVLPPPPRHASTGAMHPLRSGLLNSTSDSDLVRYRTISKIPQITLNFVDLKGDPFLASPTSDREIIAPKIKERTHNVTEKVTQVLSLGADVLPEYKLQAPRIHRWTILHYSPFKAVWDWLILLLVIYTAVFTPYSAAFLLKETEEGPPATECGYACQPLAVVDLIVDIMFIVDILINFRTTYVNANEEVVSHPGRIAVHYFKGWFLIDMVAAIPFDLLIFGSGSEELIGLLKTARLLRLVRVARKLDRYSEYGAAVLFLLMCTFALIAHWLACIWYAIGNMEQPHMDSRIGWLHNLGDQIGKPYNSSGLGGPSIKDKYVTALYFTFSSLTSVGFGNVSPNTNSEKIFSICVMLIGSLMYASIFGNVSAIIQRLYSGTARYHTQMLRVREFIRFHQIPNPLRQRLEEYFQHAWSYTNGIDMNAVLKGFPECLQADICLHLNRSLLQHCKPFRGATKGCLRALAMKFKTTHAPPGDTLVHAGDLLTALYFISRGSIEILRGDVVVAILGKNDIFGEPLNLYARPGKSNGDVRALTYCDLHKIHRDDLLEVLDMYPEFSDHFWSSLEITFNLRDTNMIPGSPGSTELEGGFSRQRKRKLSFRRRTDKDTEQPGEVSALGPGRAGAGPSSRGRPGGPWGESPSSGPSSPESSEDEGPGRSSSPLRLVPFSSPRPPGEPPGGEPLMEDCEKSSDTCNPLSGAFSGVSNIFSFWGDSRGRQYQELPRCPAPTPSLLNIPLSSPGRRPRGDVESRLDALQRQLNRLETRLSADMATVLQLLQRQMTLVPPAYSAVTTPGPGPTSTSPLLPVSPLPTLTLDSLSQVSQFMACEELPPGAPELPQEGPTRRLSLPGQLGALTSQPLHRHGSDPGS

| SMILES | hERG current change (%, negative = inhibition) at 1uM |
| --- | --- |
| C/C(=N\N=C1\NC(=O)CS1)c1cccs1 | 13.4% |
| O=C(Nc1ccc2c(c1)OCO2)c1c(Cl)nc2sccn12 | 6.3% |
| O=C(CSc1nc(C2CC2)nc2sc3c(c12)CCCC3)NCc1ccco1 | 4.94% |
| Cn1c(O)c(N=NC(=O)C2COc3ccccc3O2)c2ccccc21 (stereo not shown) | 10.7% |
| Cc1ccc(S(=O)(=O)NCC(=O)NCc2ccncc2)cc1 | 5.96% |
| CCN1CC=C(c2c[nH]c3ccccc23)CC1 | 3.56% |
| CCOC(=O)c1ccccc1NC(=O)COC(=O)CSc1ccccc1 | -2.31% |
| CC(C)Cn1cc(C(=O)NCCCN2CCCC2=O)c2c3ccccc3n(C)c2c1=O | 1.48% |
| COc1ccc2c(c1)C(=C(C#N)C#N)C(=O)N2CCc1ccccc1 | 9.16% |
| Cc1cccc(OCC(O)Cn2c(=N)n(CCN3CCCCC3)c3ccccc32)c1.Cl (stereo not shown) | -59.8% |
| COc1ccc(-n2c(=S)[nH]c(=O)c3cccnc32)cc1 | 10.2% |
| COc1cccc(-c2nc3ccc(C(=O)N4CCCC(O)C4)cc3o2)c1 (stereo not shown) | 19.3% |
| COC(=O)c1[nH]c2ccc(C)cc2c1NC(=O)CN1CCCC(C)(C)C1 | 10.9% |
| CCC(C)(C)NC(=O)/C=C/c1ccc(OC)c(S(=O)(=O)N2CCOCC2)c1 | 8.63% |
| O=C(NCCCNc1ccnc2cc(Cl)ccc12)c1ccccc1F | -38.9% |
| CC(C)(C)c1cc(NCc2ccccn2)n2ncc(-c3ccccc3)c2n1 | 13.4% |
| O=C1C=C(Nc2ccccc2)C(=O)c2ccccc21 | 13.6% |
| CC(COc1ccccc1Cc1ccccc1)N1CCCCC1.O=P(O)(O)O (stereo not shown) | -48.2% |
| Cc1cccc(C)c1NC1=NC2(CCCCC2)N=C(N)N1 | 11.5% |
| CCC(C)c1ccc(C(C)NC(=S)NCc2ccc(F)cc2)cc1 (stereo not shown) | 8.46% |

| SMILES | hERG current change (%, negative = inhibition) at 1uM |
| --- | --- |
| CN(CC(=O)Nc1ccccc1C(F)(F)F)C(=O)CSCc1ccccc1 | 7.51% |
| O=C1CCCCC1Sc1nnc(Nc2ccccc2)s1 (stereo not shown) | 3.7% |
| CC1CN(C(=S)Nc2ccccc2)CC(C)O1 (stereo not shown) | 9.63% |
| CCCCN(C(=O)c1ccc2c(c1)OCO2)c1c(N)n(CCCC)c(=O)[nH]c1=O | -4.48% |
| CCOc1cc(/C=N/NC(=O)c2cc(C)[nH]n2)ccc1OC(=O)c1ccc([N+](=O)[O-])cc1 | 14.3% |
| COc1ccc(C(=O)C2CCN(C(=O)Nc3ccccc3C)CC2)cc1 | 24.4% |
| O=C(COC(=O)c1cccs1)NCC1CCCO1 (stereo not shown) | 7.9% |
| O=C(Cn1nnc(-c2ccc3c(c2)OCO3)n1)NCc1ccccc1 | 14.2% |
| CCCCNC(=S)Nc1ccc(C(F)(F)F)cc1 | -9.25% |
| CCOC(=O)c1c(C)[nH]c(/C(C)=N/O)c1C | 10.5% |
| COc1ccc(CNC(=O)COC(=O)C2CCN(S(=O)(=O)c3ccccc3C(F)(F)F)CC2)cc1 | 5.01% |
| Cc1nc(C)c(/C(O)=C/c2nc3ccc([N+](=O)[O-])cc3oc2=O)o1 | 9.57% |
| Cc1cc(C(=O)COc2ncnc3sccc23)c(C)n1C | 9.96% |
| Cc1nc2nc(SCc3ccccc3)[nH]n2c(=O)c1CCC(C)C | 2.49% |
| CNC(=O)c1sccc1SCc1c(Cl)cccc1Cl | 9.99% |
| COc1ccc(CNC(=O)C2CCN(S(=O)(=O)N3CCOCC3)CC2)cc1 | -6.41% |
| Cc1ccc(SCc2c(C(=O)N/N=C/c3ccccc3)nnn2-c2nonc2N)cc1 | -5.4% |
| N#C/C(C(=O)NCc1ccco1)=C1/SC(Cc2ccc(F)cc2)C(=O)N1c1ccccc1 (stereo not shown) | 3.66% |
| CCOc1ccc(S(=O)(=O)N(C)c2ccc(OCC(=O)N3CCOCC3)cc2)cc1 | 8.09% |
| CCN(CC(=O)Nc1cccc(C(C)=O)c1)S(=O)(=O)c1ccc(OC)cc1 | 7.45% |

| SMILES | hERG current change (%, negative = inhibition) at 1uM |
| --- | --- |
| CCCSc1nsc(SCCC)c1C#N | 12.5% |
| O=C1CC2(CCN(C(=O)C3CC(=O)N(c4ccccc4)C3)CC2)Oc2ccccc21 (stereo not shown) | -51.5% |
| O=C(CSc1nnc(CNC(=O)c2c(F)cccc2F)o1)Nc1ccc2c(c1)OCCO2 | 11.3% |
| O=C(N/N=C/c1ccc(Cl)c([N+](=O)[O-])c1)c1cnccn1 | -13.5% |
| Cc1ccccc1-c1nc(CN2CCC(C(=O)NCCCN3CCCC(C)C3)CC2)c(C)o1 (stereo not shown) | 18.1% |
| NC(=O)c1ccsc1NC(=O)COC(=O)Cc1ccsc1 | 12.2% |
| CCN(CC)S(=O)(=O)c1ccc(N2CCOCC2)c(NC(=O)c2ccccc2)c1 | 4.5% |
| COC(=O)C1=C(c2ccc(S(C)(=O)=O)cc2)C[C@@H]2CC[C@H]1N2C(=O)N1CCC(C)CC1 | 10.3% |
| COc1cc(/C=N/NC(=S)Nc2cccc(S(=O)(=O)N(C)C)c2)ccc1O | 7.2% |
| O=C(CSc1nnc(CNC(=O)c2ccco2)o1)Nc1cccc(Cl)c1 | -4.07% |
| Cc1cccc(NC(=S)NC2CC3CCCC(C2)N3Cc2ccccc2)c1C (stereo not shown) | 4.85% |
| O=c1[nH]c(=O)n(-c2ccccc2)c(O)c1N=Nc1ccc(Br)cc1 | 2.59% |
| Cc1ccc(CS(=O)(=O)Cc2ccc(C(=O)NCCCN3CCOCC3)o2)cc1 | 11.4% |
| O=C(CN1CCC(c2nc3ccccc3s2)CC1)NCc1cccs1 | -13.9% |
| Oc1sc(C=Nc2ccccc2)c2ccccc12 | 10.4% |
| CN1CCC(=NNC(=O)COc2ccc(Cl)cc2)CC1 | 15% |
| C=CCn1c(SC)nnc1-c1ccc2ncccc2c1 | 5.94% |
| Cc1ccc(CNS(=O)(=O)c2ccc(C(F)(F)F)cc2)n1C | 12.7% |
